# According to PubChem BioAssay AID445 (National Center for Advancing Translational Sciences (NCATS), 2006):
# The campaign covered roughly 110,000 compounds. About 40 (0.04%) were called active. Inconclusive means that the source gave no clear call. Such entries were picked first, then a sample of the others. Calls come from the whole dose curve; as a rule, active = well fitted curve in the direction sought with a large enough effect in the signal ratio (not every such curve was filed as active); inconclusive = small, poorly fitted or top-dose-only effect, or a change in a side signal; inactive = flat fitted curve, though single readings scatter; the % refers to the signal ratio. Where the call is inconclusive, the potency comes from a doubtful curve fit.
# Assay: IkB Signaling;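 for IkBa stabilization activation: 0% = basal untreated cells and 100% = reference inhibitor full response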
# Details: ABC-DLBCL IkBa-CBG/CBR dual luciferase ratio (green luciferase fused to IkBa over red control in OCI-Ly3 lymphoma cells), 4 h; IkBa stabilization activation: at 57.1 µM (top of the series), scaled: untreated 0%, proteasome inhibitor 100% unless noted
# Procedure, shortened: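 Curves were fitted separately to fusion (green), unfused (red) and ratio luminescence, then classed by r2, magnitude and activity. Cells: OCI-Ly3, 4 h compound plus doxycycline at 37C; 10 uM MG-132 defined full response.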
# Potency is the fitted concentration of half-maximal effect.
SMILES,IkBa stabilization activation,Potency
Fc1ccccc1Cn1c(-c2ccccc2)nc2ccccc21,inconclusive: 0.374% [signal inhibitor],
Cc1ccnc(N2CCN(C(=O)CSc3nc4ccccc4nc3N3CCCCC3)CC2)c1,inconclusive: -0.471% [signal inhibitor],
Cc1ccccc1OCc1nnc(SCc2cc(=O)c3cccc(F)c3[nH]2)n1C,inconclusive: 3.08% [signal inhibitor],
CCn1cc(SCC(=O)NCc2ccc3c(c2)OCO3)c2ccccc21,,"inconclusive: 7.94 µM [signal inhibitor, partial curve]"
CCCS(=O)(=O)N1CCN(C(=O)c2ccc(-c3ccccc3)cc2)CC1,inactive,
O=C(c1ccccc1)N1c2ncnn2C2(CCCCC2)[C@@H]2CCCC[C@@H]21,inconclusive: -0.0257% [signal inhibitor],
COc1ccccc1NC(=O)c1sc2nc3c(cc2c1N)CCCCCC3,inconclusive: 7.09% [signal inhibitor],
Cc1ccc2c(c1)C(c1ccc(F)cc1)N(C(=O)c1ccc(OC(C)C)cc1)CC(=O)N2 (configuration not stated),inconclusive: -0.983% [signal inhibitor],
Cn1c(=O)[nH]c(=O)c2c1nc(N1CCNCC1)n2Cc1cccc2ccccc12,inconclusive: 3.88% [signal activator],
Cc1c(NC(=O)c2ccco2)cccc1-c1nc2cccnc2s1,inconclusive: 8.6% [signal inhibitor],
COc1cc2[nH]c(=O)n(CCCC(=O)N3CCN(c4cccc(C(F)(F)F)c4)CC3)c(=O)c2cc1OC,,inconclusive: 20 µM [signal inhibitor]
COc1ccccc1N1CCN(C(=O)CN2C(=O)COc3ccc(S(=O)(=O)N4CCC(C)CC4)cc32)CC1,inconclusive: 2.7% [signal inhibitor],
COc1ccc(OCc2nnc(SCC(N)=O)n2-c2ccccc2OC)cc1,inconclusive: 5% [signal inhibitor],
COc1ccc(C(=O)CSc2c(C(C)C)cnc3c2c(=O)n(C)c(=O)n3C)cc1,inconclusive: -0.449% [signal inhibitor],
Cn1ncc2nc(SCC(=O)Nc3ccc(Br)cc3F)n(Cc3ccccc3)c(=O)c21,inconclusive: 7.31% [signal inhibitor],
c1ccc(CN(Cc2ccco2)C(c2ccncc2)c2nnnn2C2CCCC2)cc1 (configuration not stated),inactive,
Cc1ccc(NC(=O)C(Cc2c[nH]c3ccccc23)NC(=O)OCC(C)C)cc1 (configuration not stated),inconclusive: 3.53% [signal inhibitor],
CC(C)(C)C(=O)NCCc1csc2nc(-c3ccc(F)cc3)nn12,inconclusive: 0.422% [signal inhibitor],
CCC(c1nnnn1Cc1ccco1)N(CCc1ccccc1)Cc1cc2cc(C)ccc2[nH]c1=O (configuration not stated),,"inconclusive: 31.6 µM [signal inhibitor, single point]"
COc1ccc2oc(-c3ccc(C)c(NC(=O)COc4cc(C)cc(C)c4)c3)nc2c1,inconclusive: 8.21% [signal inhibitor],
CCCOC(=O)c1ccc(Oc2cn[nH]c2-c2ccc(OCC)cc2O)cc1,inconclusive: -1.3% [signal inhibitor],
O=c1cnc2cnc(N3CCNCC3)nc2n1Cc1ccc(F)cc1,"inactive: 2.4% [at 11.4 µM, scaled: untreated 0%, proteasome inhibitor 100%]",
NC(=NCc1ccc(Cl)c(Cl)c1)NC(=O)c1nc(Cl)c(N)nc1N,inactive,

SMILES,IkBa stabilization activation,Potency
O=C(CN1CCCN(Cc2ccccc2Cl)S1(=O)=O)NCc1ccccc1,inconclusive: 1.99% [signal inhibitor],
Cc1cccn2c(=O)cc(COc3cccc(NC(=O)COc4ccc(F)cc4)c3)nc12,inconclusive: 4.5% [signal inhibitor],
COc1cc(-c2noc(CCC(=O)Nc3cc(C)ccc3C)n2)cc(OC)c1OC,inconclusive: 3.07% [signal inhibitor],
CCCCS(=O)(=O)/C=C\C1C2C=CC(C2)C1S(=O)(=O)CCCC (configuration not stated),inactive,
COc1ccc(NC(=O)CCS(=O)(=O)c2ccc3nc(C)sc3c2)cc1Cl,inconclusive: 1.38% [signal inhibitor],
Cc1ccc(-n2ncc(C(=O)NCCc3c[nH]c4ccccc34)c2C2CCN(C(=O)OC(C)(C)C)CC2)cc1C,inconclusive: 0.694% [signal inhibitor],
Cc1ccc(OC(=O)CSc2nnc(-c3cccs3)o2)cc1,inconclusive: 0.123% [signal inhibitor],
CNC(=O)c1c(NC(=O)/C=C/c2ccccc2Cl)sc2c1CCC2,inconclusive: 9.08% [signal inhibitor],
Cc1ccccc1C(=O)N(Cc1nc(-c2ccc(Cl)cc2)no1)C(C)C,inconclusive: -0.66% [signal inhibitor],
CC(NC(=O)CN(c1ccc(Cl)cc1Cl)S(=O)(=O)c1ccccc1)c1ccccc1 (configuration not stated),inconclusive: 2.67% [signal inhibitor],
CCC(=O)Nc1ccc(CC)cc1-c1nc2ccccc2n(Cc2ccccc2)c1=O,inactive,
CCN(CC)C(=O)CSC(=Nc1ccccc1F)NC#N,inconclusive: 13.9% [signal inhibitor],
CC1CCCC(NC(=O)c2n[nH]c(=O)c3ccccc23)C1C (configuration not stated),inconclusive: 8.23% [signal inhibitor],
CCCN(CCC)CCCNC(=O)Cn1ncc2c3ccccc3n(Cc3ccccc3)c2c1=O,inconclusive: 1.7% [signal inhibitor],
COC(=O)c1ccc(CSc2nc3c(cnn3-c3ccc(C)cc3)c(=O)[nH]2)o1,inactive,
Cc1nc(-c2ccc(Cl)cc2)sc1CCNC(=O)c1cccs1,inconclusive: 6.68% [signal inhibitor],
CCCOc1ccc(-c2nc(SC)[nH]c(=O)c2C#N)cc1OC,inconclusive: -2.05% [signal inhibitor],
O=C(c1ccc2c(c1)N(Cc1ccccc1)C(=O)c1ccccc1S2(=O)=O)N1CCCCCC1,inconclusive: 2.26% [signal inhibitor],
CC(C)Cn1c(=O)c(C(=O)NCc2ccccn2)c(O)c2ccccc21,inactive,
C[C@]12CC[C@H]3c4ccc(O)cc4CC[C@@H]3[C@H]1CC[C@@H]2OP(=O)(O)O,"inactive: -0.0479% [at 11.4 µM, scaled: untreated 0%, proteasome inhibitor 100%]",
Cc1ccc(S(=O)(=O)c2c(Nc3cc(F)ccc3F)sc(C(=O)c3ccc(F)cc3)c2N)cc1,inconclusive: 10.3% [signal inhibitor],
Cc1cc(C)cc(NC(=O)C2CCCN(C(=O)c3cnn(-c4ccccc4)c3-n3cccc3)C2)c1 (configuration not stated),inconclusive: 3.38% [signal inhibitor],
CCC1CCCCN1CC(=O)Nc1cc(C)c2c(=O)oc3ccccc3c2n1 (configuration not stated),inconclusive: 3.45% [signal inhibitor],

SMILES,IkBa stabilization activation,Potency
Cc1ccc(-c2nonc2NC(=O)c2ccc(F)cc2)cc1C,inconclusive: 7.46% [signal inhibitor],
Cc1ccc(NC(=O)N2CCC(c3ccccc3)C2)cc1C (configuration not stated),inactive,
CCc1nn(C(CC)C(=O)NCc2ccc(F)cc2)c(=O)c2cc3occc3n12 (configuration not stated),inconclusive: 1.41% [signal inhibitor],
O=C(COC(=O)C1CC2C=CC1C2)Nc1ccc2c(c1)OC(F)(F)O2 (configuration not stated),inconclusive: 0.474% [signal inhibitor],
O=C(CCc1ccccc1)N(Cc1cccnc1)c1nc2c(F)cccc2s1,inconclusive: 8.13% [signal inhibitor],
O=C(Nc1ccc(Cl)c(Cl)c1)OCc1cccnc1,inconclusive: 0.012% [signal inhibitor],
COc1cc(C(=O)NCC(c2ccco2)S(=O)(=O)c2ccccc2)cc(OC)c1OC (configuration not stated),inconclusive: 0.628% [signal inhibitor],
O=C1CSC(c2cn(-c3ccccc3)nc2-c2cccs2)N1CC1CCCO1 (configuration not stated),inactive,
CCCOc1ccc(C(=O)N(Cc2ccc(N(C)C)cc2)CC2CCCO2)cc1 (configuration not stated),inconclusive: 2% [signal inhibitor],
CC1=C(C(=O)Nc2ccccc2)C(CC(C)C)n2nc(SCc3ccccc3C)nc2N1 (configuration not stated),inconclusive: 2.12% [signal inhibitor],
O=C(c1cc2c(s1)-c1ccccc1OC2)N1CCN(c2ccccc2)CC1,inconclusive: 5.55% [signal inhibitor],
CCN(C(=O)c1coc(=O)c2ccccc12)c1ccccc1C,inactive,
CC(C)[C@@H](CC(=O)N[C@@H]1CCNC[C@H]1C(=O)N[C@H](CC(=O)N[C@@H](CCC(=O)O)CC(=O)O)Cc1ccccc1)NC(=O)C[C@H](Cc1c[nH]c2ccccc12)NC(=O)[C@@H]1CCCC[C@H]1N,inactive,
Cc1ccc(C)c(OCC(=O)Nc2ccc3c(c2)OCO3)c1,inactive,
CCCOc1ccc2oc(=O)c3c(c2c1)CCCN3C(=O)CN1CCc2ccccc2C1,inconclusive: 4.07% [signal inhibitor],
CC(=O)c1cccc(NC(=O)Nc2ccc3c(c2)N(C)C(=O)CS3)c1,inconclusive: -5.55% [signal inhibitor],
CCOc1ccc(CNCc2c(C(=O)O)n(Cc3ccc(C)cc3)c3cc(C)ccc23)cc1,inconclusive: -1.98% [signal inhibitor],
CC(=O)Nc1ccc(-c2cn3ccsc3n2)cc1,inactive,
CSc1ccccc1NC(=O)C1CC(c2ccccc2O)=NO1 (configuration not stated),,"inconclusive: 15.8 µM [signal inhibitor, partial curve]"
COc1ccc(NC(=O)COC(=O)c2ccc(Br)o2)cc1OC,inactive,
Cc1c(Cl)cccc1NC(=O)CN(CCc1ccccc1)S(=O)(=O)c1ccccc1,inconclusive: 5.68% [signal inhibitor],
